PubChem BioAssay AID1508642 (National Center for Advancing Translational Sciences (NCATS), 2021)
In all, about 43,000 compounds went through this assay and about 200 (0.47%) were called active. Not shown: some 12% with an inconclusive outcome. Calls come from the whole dose curve; as a rule, active = well fitted cell-killing curve with a large enough effect; inconclusive = small, poorly fitted or top-dose-only effect, or effect the other way; inactive = flat fitted curve, though single readings scatter. This is one part of the list.

assay: Cell viability qHTS assay in S16 Pmp22-F2sN cells; details: S16 Pmp22-F2sN Schwann cells viability, CellTiter-Glo, 24 h; series mostly up to 57.5 µM; activity change, negative = cytotoxicity: at the top concentration; note: nearly all actives have a fitted effect of over 65% in size
In short: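 Used to flag compounds lowering reporter output through toxicity, this quantitative HTS measures ATP-based CellTiter-Glo luminescence in S16 Pmp22-F2sN Schwann cells after 24 h compound exposure at 37C.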
% is set by controls: 0 for no effect and ±100 for the full control effect.

SMILES | activity change, negative = cytotoxicity
CCNC(=O)c1ccc2nc(Cc3ccccc3)oc2c1 | inactive: -3.57%
COc1cc2[nH]c(=O)n(CCCCCC(=O)NCCc3ccccc3)c(=O)c2cc1OC | inactive: -0.641%
Fc1ccc(-c2ccc(CNCCSc3nnnn3-c3ccccc3)o2)cc1Cl | inactive: -9.24%
O=C(Nc1c(C(=O)Nc2cccc(F)c2)oc2ccccc12)c1cc2ccccc2o1 | inactive: -1.16%
CCOC(=O)c1cc(-c2ccccc2)n(-c2cccc(C(=O)N(CC)c3ccccc3)c2)c1C | inactive: 5.32%
COc1ccc(N2CC(NC(=O)COc3ccccc3C)CC2=O)cc1OC (centres undefined) | inactive: -0.745%
CCN1c2cc(C)ccc2-n2cccc2C12CCN(C(=O)Nc1cc(OC)c(OC)c(OC)c1)CC2 | inactive: -13%
Cc1ccc(S(=O)(=O)c2nc(-c3ccco3)oc2SCc2ccccc2Cl)cc1 | inactive: -7.67%
COc1ccc(N2CCN(C(=O)NCc3noc4ccccc34)CC2)cc1 | inactive: -1.36%
Cc1cc(C)cc(-n2ccn3c(CC(C)(C)CC(=O)O)nnc3c2=O)c1 | inactive: 13%
COc1cccc(NC(=O)C2CCCN2S(=O)(=O)c2ccc3c(c2)C(C)(C)C(=O)N3C)c1 (centres undefined) | inactive: -10.1%
Cc1ccc(-n2c(SCC(=O)Nc3cccc(F)c3)nc3c(oc4ccccc43)c2=O)cc1C | inactive: -19.2%
Cc1cccc(C(=O)OCc2cc(=O)n3nc(C4CCCCC4)sc3n2)c1 | inactive: 1.22%
O=C(Cc1cccs1)NC1CC(=O)N(c2ccc(Cl)cc2)C1 (centres undefined) | inactive: -0.193%
CC(C)Sc1ncc(Cl)c(C(=O)N(Cc2ccc(F)cc2)C2CCS(=O)(=O)C2)n1 (centres undefined) | inactive: 2.76%
Cc1ccc(-c2nn3c(-c4ccccc4)nnc3c3ccccc23)cc1 | inactive: 3.28%
CC1=C(C(=O)Nc2ccc(C)cc2)C(c2ccc(Cl)cc2)n2nnnc2N1 (centres undefined) | inactive: 15.3%
Cc1ccc(NC(=O)CN2C(=O)C(C)(C)c3ccccc32)cc1 | inactive: -10.9%
CCOc1ccc(N2CC(NC(=O)Cc3ccccc3)CC2=O)cc1 (centres undefined) | inactive: -2.99%
COc1ccc(N2Cc3cccc(C(=O)Nc4ccc(C)c(C)c4)c3C2=O)cc1 | inactive: 10.2%
O=C(NCCC1=CCCCC1)c1ccc2c(c1)N(Cc1ccccc1F)C(=O)c1ccccc1S2(=O)=O | inactive: -4.67%
CCc1cccc(N2C(=O)CS(=O)(=O)C23C(=O)N(Cc2ccc(F)cc2)c2ccc(C)cc23)c1 (centres undefined) | inactive: -2.22%
CCc1ccc(NC(=O)CN2C(C(=O)OC)=C(c3ccccc3)c3ccccc3S2(=O)=O)cc1 | inactive: -2.03%
CC(C)CCNC(=O)C1CCC(CNS(=O)(=O)c2cccc3nsnc23)CC1 (centres undefined) | inactive: -18.8%
CCCc1nn2c(=O)cc(COC(=O)c3ccccc3NC(=O)c3ccc(OCC)cc3)nc2s1 | inactive: -13.9%

SMILES | activity change, negative = cytotoxicity
O=C(Nc1ccc(Cl)cc1F)c1cc(S(=O)(=O)NC2CCCCCC2)ccc1F | inactive: -4.45%
O=C(CSc1nc(=O)n(Cc2ccccn2)c2c1CCC2)Nc1cccc(Cl)c1 | inactive: 18.9%
COCCNC(=O)CSc1nc(-c2ccc(C)cc2)[nH]c1-c1ccc(OC)cc1 | inactive: 0.55%
Cc1ccc(C(=O)c2cn(Cc3ccccc3)c3ccccc3c2=O)cc1 | inactive: -3.11%
Cc1cccc(-c2nc3cc(NC(=O)COc4ccccc4F)ccc3o2)c1 | inactive: 9.96%
Cc1cccc(NC(=O)c2oc3ccccc3c2NC(=O)Cc2coc3cc(C)cc(C)c23)c1 | inactive: -2.17%
Cc1ccc(-c2c3c(=O)n(C)c(=O)n(C)c3c3c(C)nc4ccccc4n23)cc1 | inactive: -4.55%
COc1ccc(NC(=O)Cn2ccn(-c3ccc(C)c(C)c3)c(=O)c2=O)cc1Cl | inactive: 3.38%
Cc1cc(N2CCN(c3ccc(F)cc3)CC2)n2cnnc2n1 | inactive: 3.1%
Cc1ccc2c(CC(=O)Nc3ccc(S(=O)(=O)N4CCCC(C)C4)cc3)coc2c1 (centres undefined) | inactive: 10.2%
CC1CCN(S(=O)(=O)c2ccc3c(c2)N(CC(=O)NCCN(C)C)C(=O)CS3)CC1 | inactive: 1.54%
O=C(NCCc1ccccc1)c1ccc2c(c1)CCN2S(=O)(=O)c1ccc(Cl)cc1 | inactive: -25.4%
O=C(Cn1c(=O)c2cccn2c2ccc(F)cc21)Nc1cccc(F)c1 | inactive: 5.64%
CCCCN(C)C(=O)C1CCC(Cn2c(=O)[nH]c3ccsc3c2=O)CC1 (centres undefined) | inactive: -18%
COc1ccccc1CNc1ncnc2c1nc1n2CCCC1 | inactive: -3.81%
Cc1ccc(Cl)cc1NC(=O)c1cc(S(=O)(=O)N2CCOCC2)cn1C | inactive: 8.29%
COc1ccccc1CNS(=O)(=O)c1c(C)nc2sc(C)cn2c1=O | inactive: 6.73%
Cc1cc(NC(=O)c2cc(-c3ccc(F)cc3)on2)nn1Cc1ccc(Cl)cc1 | inactive: 5.12%
Cc1oc2ncnc(N3CCOCC3)c2c1C(=O)Nc1ccc(Br)cc1F | inactive: 7%
Fc1ccc(-n2nc(-c3ccccc3)c3cnc4ccccc4c32)cc1Cl | inactive: -17.9%
CCOc1ccc(-c2cc3c(=O)n(CC(=O)NCc4ccccc4)ccn3n2)cc1 | inactive: 1.51%
OC(c1ccccc1)c1nc2ccccc2n1Cc1c(F)cccc1Cl (centres undefined) | inactive: -6%
Cc1ccc(CNC(=O)Cn2ccn(-c3ccc(F)c(F)c3)c(=O)c2=O)cc1 | inactive: 1.54%
CCC(Sc1nc2ccncc2[nH]1)C(=O)Nc1cc(C)ccc1C (centres undefined) | inactive: 2.68%
